Data reported in the RNAGym collection of RNA variant scans (doi:10.1093/nar/gkz1192).
Read counts are not given, so values of variants with three or more changes are uncertain.

B1: CPEB3 Ribozyme (parent)
chain: UAACAGGGGGCCACAGCAGAAGCGUUCACGUCGCAGCCCCUGUCAGAUUCUGGUGAAUCUGCGAAUUCUGCUGUAUAUCUC

Variants of: B1
Assay: self-cleavage, relative activity (ratio to wild type); higher = more cleavage; in vitro, sequencing
How it was run: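 Relative activity was defined as the cleaved/total read fraction for a variant divided by the same fraction for the unmutated ribozyme. CPEB3 self-cleaving ribozyme libraries were made by rounds of error-prone PCR, barcoded, and transcribed in vitro with T7 RNA polymerase for 5 hours at 37°C, and cleavage ran through transcription plus a 15 min DNase I step before EDTA. Illumina sequencing of template-switched reverse transcripts gave the reads, and DNA sequencing mapped the barcodes. Averages come from three batches, using variants with at least 5 reads.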

Variant | self-cleavage
UAACGGGGGGCCACAGCAGAAGAGUCCACGUCGCAGCCCCUGUCAGUUUCUGGUGAAUCUGCGGAAUCUGCUGUAUAUCUC [A5G C23A U26C A47U A64G U66A] | 0.2
UAACGGGGGGCUGCAGCAGAAGCGUUCACGUCGCAGCCCCUGUCAGAUUCUGGUGAAUCUGCGAAUUCUGCUGUAUAUCUC [A5G C12U A13G] | 0.18
UAACGGGGGGCCACAGCAGAAGAGUUCACGUCGCAGCCCCUGUCAGAUUCCGGUGAAUCUGCGAAUUCUGCCUUAUAUCUC [A5G C23A U51C U72C G73U] | 0.59
UAACGGGGGGCCACAGCAGAAGCGUUCACGUCGCAGCCUCUGUCUGAUUCUGGUGACUCUGCGAAUUCCGCUGUAUGUCUC [A5G C39U A45U A57C U69C A77G] | 0.13
UAACGGGGGGCCACAGAAGAAGCGUUCACGUCGCAGCCCCUGUCAGAUUCUGGUGAAUCUGCGAAUUCUGCUGUAAAUCUC [A5G C17A U76A] | 0.52
UAACGAGGGGCCACAGCAGAGGCGUUCACGUCGCAGCCCCUGUCAGAUUCUGGUGAAUCUGCGAAUUCUGAUGCGUAUCUC [A5G G6A A21G C71A U74C A75G] | 0.12
UAACGGGGGGCCACAGCAGAAGUGUUCACGUCGCAGCCCCUGUCAGAUUCCGGUGAAUCUGCGAAUUCUGCAGUAUAUCUC [A5G C23U U51C U72A] | 0.05
UAACGGGGGGCCACAGUAGAAGCGUUCACGUCGCAGCCCCUGUCAGAUUCUGGUAAAUCUGCGAAUUCUGCUGUAUAUCUC [A5G C17U G55A] | 0.14
UAACGGGGGGCUACAGCAGAAGAGUUCACGUCGCAGCCCCUGUCAGAUUCUGGAGAAUCUGCGAAUUCUGAUGUAUUACUC [A5G C12U C23A U54A C71A A77U U78A] | 0.11
UAACGGGGGGCCAUAGCAGAAGCGUUCACGUCGCAGCCCUUGCCAGAUUCUGGUGAAUCUGCGAAUUCUGCUGAAUAUCUC [A5G C14U C40U U43C U74A] | 0.27
UAACGGGGGGCUACAGCAGAAGCGUUCGCGUCGCAGCCCCUGUCAGAUUCUGGUGAAUCUGCGAAUUCUGCUGUAUGUCUC [A5G C12U A28G A77G] | 0.28
UAACGGGGGGCCACAGCAGAAGCGUUCACGUCGUAGCCCCUGUCAGAUUCUGGCGAAUCAGCGAAUUCUGCUGUAUAUCCC [A5G C34U U54C U60A U80C] | 0.17
UAACGGGGGGCCAAAGCAGAAGCGUUCACGCCGCAGCCCCAGUCAGAUUCUGGUGAAUCUGCGAAUUCUGCUGUAUAUCUC [A5G C14A U31C U41A] | 0.09
UAACGAGGGGCCACAGCAGAAGCGUUCACGUCGCAGCCCCUGUCAGAUUCUGGUGUAUCCGCGAAUUCUGCUGUAUAUCUC [A5G G6A A56U U60C] | 0.18
UAACGAGGGGCCACUGCAGAAGCGUUCACGUCGCGGCCCCUGUCAGACUCUGGUGAAUCUGCGAAUUCUGCUGUAUAUCUC [A5G G6A A15U A35G U48C] | 0.11
UAACGGGGGGCCACAGCAGAAGCGUUCAUGUCGCAGCCUCUGUCAGAUUCUGGUGAAUCUGCGAAUUCUGCUGUAUACCUC [A5G C29U C39U U78C] | 0.06
UAACGAGGGGCCACAGCAGAAGCAUUCACGUCGCUGCCCCUGUCAGAUUCUGGUGAAUCCGCGAAUUCUGCUGUAUAUCUC [A5G G6A G24A A35U U60C] | 0.06

Variant | self-cleavage
UAACGGGGGGCCACAGCAGAAGCGUUCACGUCGCAGCCUCUGUCAGAUUCUGGAGAACCUGCGAAUUCUGCUGCAUAUCUC [A5G C39U U54A U58C U74C] | 0.13
UAACGGGGGGCCACAGCAGAAGCGUUCACGUCGCAGCCCCUGUUUGAUUCUGGUGAAUCUGCGAAUUCAGCUGUAUAUCUC [A5G C44U A45U U69A] | 0.27
UAACGGGGGGCUACAGCAGAAGCGUUCACGUCGCAGCCCCUGUCAGAUUCUGGUGAAUCCGCGAAUUCUACCGUAUAUCUC [A5G C12U U60C G70A U72C] | 0.18
UAACGGGGGGCCACAGCAGAAGCGUUCACGUCGCAGCCCCUGUCAGAUUCUGGUGAAUGUGUGAAUUCUGCUGUAUAUCUC [A5G C59G C62U] | 0.29
UAACGGGGGGCCACAGCAGAAGUGCUCACGUCGGAGCCCCUGACAGAUUCUGGUGAAUCAGCGAAUUCUGCUGUAUAUCUC [A5G C23U U25C C34G U43A U60A] | 0.09
UAACGGGGGGCCAAAGCAGAAGCGUUCACGUCGCAGCCCCUGUCGGAUUCCGGAGAAUCUGCGAAUUCUGCUGUAUAUCUC [A5G C14A A45G U51C U54A] | 0.54
UAACGGGGGGCCAAAGCAGAAGCGUUCACGUCGCAGCCCCAGUCAGAUUCUGGUGAAUCUGCGAAUUCUGCUGUAUAUCUC [A5G C14A U41A] | 0.41
UAACGGGGGGCCACAGCAGAAGCGUUCAAGUCGCAGCCCAUGUCAGAUUCUGGUGAAUCUGCGAAUUCUGCUGUAUAUCUC [A5G C29A C40A] | 0.13
UAACGGGGGGCCACAGCAGAAGCGUUCACGUCGCAGCUCCUGUCAGAUUCUGGUGAAUCUGCGUAUUCUGCUGUAUAUCUC [A5G C38U A64U] | 0.58
UAACGGGGGGCCACAGCAGAAGCGUUCACGUCGCAGCCCAUGUCAGAUUCUGGUGAAUCUGCGUAUUCUGCUGUAUAUCUC [A5G C40A A64U] | 0.19
UAACGGGGGGCUACAUCAGAAGCGUUCGCGUCGCAGCCCCCGUCAGACUCUGGCGAAUCUGCGAAUUCUGCUGUAUAUCUC [A5G C12U G16U A28G U41C U48C U54C] | 0.06
UAACGGGGGGCCACAGCAGAAGCGUUCACGUUGCAGCCCCUGUCAGACUCUGGUGAAUCAGCGAAUUCUGCUGUAUAUCUC [A5G C32U U48C U60A] | 0.1
UAACGGGGGGCCACAGCAGAAGCGUUCAUGCCGCAGCCCCUGUCAGAUUCUGGUGAAUCUGCGAAUUCUGCUGUAUAUCUC [A5G C29U U31C] | 0.38
UAACGGGGGGCCACAGCAGAAGUGUUCACGUCGCAGCCCAUGUCAGCUUCUGGUGAAUCUGCGAAUACUGCUGUAUAUCUC [A5G C23U C40A A47C U67A] | 0.07
UAACGGGGGGCCACAGCAGAAGCGUUCACGUCGCAGCCACUGUCAGAUUCUGGUGAAUCUGCGAAUUCUGCGGUAUAUCUC [A5G C39A U72G] | 0.23
UAACGGGGGGCCACAGCAGAAGGGUCCACGUCGCAGACCCUGUCAGAUUCUGGUGAAUCUGCGGAUUCUGCAGUAUAUCUC [A5G C23G U26C C37A A64G U72A] | 0.06
UAACGAGGGGCCACAGCAGAAGCUUUCACACCGCAGCCCCUGUCAGGUUCUGGUGAAUCUGCGAAUUCUGCUGUAUACCUC [A5G G6A G24U G30A U31C A47G U78C] | 0.13
